{
  "source": "PubChem BioAssay AID504339",
  "about": "(National Center for Advancing Translational Sciences (NCATS), 2011)",
  "note": "About 17,000 (4.4%) of roughly 390,000 compounds were called active. The shares of active, inactive and inconclusive entries below differ from those in the screen. Calls follow the shape of the dose curve; as a rule, active = well fitted inhibition curve with a large enough effect; inconclusive = small, poorly fitted or top-dose-only effect; inactive = no such curve, though single readings can be large or run the other way. Potencies beside an inconclusive call are fits to weak or partial responses and may not hold up. % is scaled to controls: 0 for no effect and ±100 for the full control effect; potency is read from the fitted curve at half-maximal effect; tags tell the direction and shape of the fitted curve.",
  "data": [
    {"molecular_target": "Lysine-specific demethylase 4A (Homo sapiens) (UniProt O75164)", "sequence (O75164 whole entry, looked up, the tested form may be a part)": "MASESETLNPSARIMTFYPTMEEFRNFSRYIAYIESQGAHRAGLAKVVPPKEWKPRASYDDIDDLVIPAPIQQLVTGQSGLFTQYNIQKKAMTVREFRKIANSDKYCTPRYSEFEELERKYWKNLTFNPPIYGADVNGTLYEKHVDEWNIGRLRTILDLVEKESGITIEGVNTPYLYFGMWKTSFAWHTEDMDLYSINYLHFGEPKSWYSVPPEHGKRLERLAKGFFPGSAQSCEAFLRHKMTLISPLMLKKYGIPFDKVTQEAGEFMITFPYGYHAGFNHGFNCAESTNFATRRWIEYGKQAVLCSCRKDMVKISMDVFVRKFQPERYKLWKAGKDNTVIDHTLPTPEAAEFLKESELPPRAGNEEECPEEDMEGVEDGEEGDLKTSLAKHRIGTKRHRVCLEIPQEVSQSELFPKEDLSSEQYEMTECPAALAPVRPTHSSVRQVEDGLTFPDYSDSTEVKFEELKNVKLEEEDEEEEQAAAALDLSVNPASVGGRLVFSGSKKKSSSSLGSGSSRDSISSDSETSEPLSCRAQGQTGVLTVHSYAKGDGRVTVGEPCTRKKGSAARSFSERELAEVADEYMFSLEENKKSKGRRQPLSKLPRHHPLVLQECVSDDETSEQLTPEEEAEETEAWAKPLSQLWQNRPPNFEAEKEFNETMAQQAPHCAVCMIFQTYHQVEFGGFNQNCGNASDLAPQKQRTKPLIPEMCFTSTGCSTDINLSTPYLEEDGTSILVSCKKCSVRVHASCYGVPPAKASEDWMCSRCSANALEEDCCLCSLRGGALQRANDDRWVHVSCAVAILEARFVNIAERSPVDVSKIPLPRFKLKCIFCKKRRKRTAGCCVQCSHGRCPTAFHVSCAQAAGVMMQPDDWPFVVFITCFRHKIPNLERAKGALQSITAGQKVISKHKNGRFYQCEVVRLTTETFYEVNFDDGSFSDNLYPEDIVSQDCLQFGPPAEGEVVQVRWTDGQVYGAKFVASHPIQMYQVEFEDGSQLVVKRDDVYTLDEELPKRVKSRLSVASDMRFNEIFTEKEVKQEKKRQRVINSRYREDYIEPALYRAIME", "experiment": "qHTS Assay for Inhibitors of JMJD2A-Tudor Domain; also: nearly all actives have a fitted effect of over 50% in size", "settings": "AlphaScreen JMJD2A-Tudor / H3K4me3 peptide binding; activity change, negative = inhibition: at 114 µM (top of the series)", "values": [
      {"compound": "CCN(CC)c1ccc(/C=N/NC(=O)CNC(=O)c2ccccn2)cc1", "Potency": "inconclusive: 39.8 µM [inhibitor, partial curve]"},
      {"compound": "O=C(Nc1cc(Cl)ccc1-n1cncn1)c1ccc([N+](=O)[O-])s1", "Potency": "inconclusive: 50.1 µM [inhibitor, partial curve]"},
      {"compound": "CCCC12C(=O)C(C)(C(c3ccccc3)=C1c1ccccc1)C1C(=O)N(c3ccc(C)cc3)C(=O)C12", "note": "(stereo not given)", "Potency": "inconclusive: 79.4 µM [inhibitor, single point]"},
      {"compound": "CCC1S/C(=N/N=C/c2cccs2)NC1=O", "note": "(stereo not given)", "activity change, negative = inhibition": "inactive: -11.6% [at 11.4 µM]"},
      {"compound": "COc1ccc(COC(=O)c2cc([N+](=O)[O-])ccc2N2CCOCC2)cc1F", "Potency": "inconclusive: 35.5 µM [inhibitor, full curve]"},
      {"compound": "N#C/C(=N\\Nc1ccc(Cl)cc1)C(N)=S", "Potency": "inconclusive: 15.8 µM [inhibitor, full curve]"},
      {"compound": "COc1ccc(C2NCCc3c2[nH]c2ccccc32)cc1COc1ccc(F)cc1", "note": "(stereo not given)", "Potency": "active: 39.8 µM"},
      {"compound": "O=[N+]([O-])c1cccc(S(=O)(=O)c2ccc(N3CCCCC3)c([N+](=O)[O-])c2)c1", "Potency": "inconclusive: 28.2 µM [inhibitor, partial curve]"},
      {"compound": "CN(C)CCCNc1nc2sc3c(c2c(=O)n1CCc1ccccc1)CCCCC3", "Potency": "inconclusive: 39.8 µM [inhibitor, partial curve]"},
      {"compound": "Cc1ccc(C)c(N2CCN(C(=O)Cn3cccc3)CC2)c1", "Potency": "inconclusive: 50.1 µM [inhibitor, partial curve]"},
      {"compound": "Cc1nc(N2CCN(c3ccccn3)CC2)c2c(C)c(C(=O)Nc3ccc(F)cc3)sc2n1", "Potency": "inconclusive: 31.6 µM [inhibitor, partial curve]"},
      {"compound": "CCCCc1ccc(NC(=O)Cn2cnc3c2c(=O)n(C)c(=O)n3C)cc1", "Potency": "inactive"},
      {"compound": "CCc1ccc(CN(C)Cc2nc(Cc3cccc(C(F)(F)F)c3)no2)nc1", "Potency": "inconclusive: 1.26 µM [inhibitor, full curve, poor fit]"},
      {"compound": "Cc1nc2c(C)cccc2c(SC(=N)N)c1CC=C(Cl)Cl", "Potency": "inconclusive: 89.1 µM [inhibitor, single point]"},
      {"compound": "Cc1cc(C)c(S(=O)(=O)NCc2ccc3c(c2)cc(C)n3C)c(C)c1", "Potency": "inconclusive: 44.7 µM [inhibitor, partial curve]"},
      {"compound": "Cn1cc(CN2CCCC(CNC(=O)c3ccc4c(c3)OCO4)C2)c2ccccc21", "note": "(stereo not given)", "Potency": "inconclusive: 89.1 µM [inhibitor, single point]"},
      {"compound": "COc1ccc(-c2nc(NC(=O)C3CC(=O)N(Cc4ccco4)C3)sc2C)cc1", "note": "(stereo not given)", "Potency": "inconclusive: 63.1 µM [inhibitor, partial curve]"},
      {"compound": "COc1ccc(CN2CCN(CC3CC3)CC2CCO)c(C)c1C", "note": "(stereo not given)", "Potency": "inactive"},
      {"compound": "O=C(N/N=C/c1ccccn1)c1ccncc1", "Potency": "inconclusive: 70.8 µM [inhibitor, partial curve, poor fit]"},
      {"compound": "Cc1cccc(-c2cc3nc4c(c(NCc5ccco5)n3n2)CCCC4)c1", "Potency": "active: 79.4 µM"},
      {"compound": "CCOc1ccc(-n2c(SCc3ccc([N+](=O)[O-])cc3)nnc2-c2ccc(OC)cc2)cc1", "Potency": "inconclusive: 50.1 µM [inhibitor, single point]"},
      {"compound": "Cc1ccccc1NC(=O)c1cc2c(C)nc3ccccc3c2o1", "Potency": "inconclusive: 25.1 µM [inhibitor, single point]"},
      {"compound": "COc1ccc(N2CCN(C(=O)c3ccc(NS(=O)(=O)c4ccc(F)c(F)c4)cc3)CC2)cc1", "Potency": "active: 89.1 µM"},
      {"compound": "Cn1c2c(c(=O)[nH]c1=O)C(c1ccc(O)cc1)C1=C(N2)c2ccccc2C1=O", "note": "(stereo not given)", "Potency": "active: 50.1 µM"},
      {"compound": "CC(C)(C)Nc1nc2cc([N+](=O)[O-])ccc2o1", "Potency": "inactive"},
      {"compound": "COc1ccc(Cl)cc1NC(=O)CN1CCc2ccccc2C1", "Potency": "inactive"},
      {"compound": "COc1ccc(C)cc1NC(=O)CN1CCN(c2ccc(F)cc2)CC1", "Potency": "inconclusive: 56.2 µM [inhibitor, partial curve, poor fit]"},
      {"compound": "O=C1Nc2ccccc2/C1=C/c1cccnc1", "Potency": "inactive"},
      {"compound": "O=C(CSc1nnc(-c2ccc(O)cc2)n1Cc1ccccc1)NNC(=O)c1ccc(Br)cc1", "Potency": "inconclusive: 89.1 µM [inhibitor, partial curve]"},
      {"compound": "COc1ccc(NCc2ccc(OC)c(Cn3ccnc3)c2)c(OC)c1", "Potency": "active: 39.8 µM"},
      {"compound": "CC(=O)c1c(C)oc2ccc(N(C(=O)Oc3ccccc3)S(=O)(=O)c3ccc(Br)cc3)cc12", "Potency": "inactive"},
      {"compound": "COc1cc(CCC(=O)OCC(=O)Nc2ccccc2OC(F)F)cc(OC)c1OC", "Potency": "inactive"},
      {"compound": "CCOc1cccc(/C=N/NC(=O)c2cccnc2)c1O", "Potency": "active: 89.1 µM"},
      {"compound": "Cc1nc2c(=O)[nH]c(=S)n(C)c2nc1C", "Potency": "active: 50.1 µM"},
      {"compound": "O=C(CCCC(=O)Nc1cccc(Br)c1)N/N=C/c1cc([N+](=O)[O-])ccc1O", "Potency": "inconclusive: 89.1 µM [inhibitor, single point]"},
      {"compound": "CCN(C(=O)CN1C(=O)/C(=C/c2ccc(F)cc2)SC1=S)C1CCS(=O)(=O)C1", "note": "(stereo not given)", "Potency": "inconclusive: 56.2 µM [inhibitor, partial curve]"},
      {"compound": "CCN(CC#CCC1(O)c2ccccc2-c2ccccc21)CCO", "Potency": "active: 89.1 µM"},
      {"compound": "Cc1cc(C)c2c(c1)[C@@H]1C=CC[C@@H]1[C@H](c1ccc(S(=O)(=O)N3CCOCC3)cc1)N2", "Potency": "inconclusive: 28.2 µM [inhibitor, single point]"},
      {"compound": "C[C@@H]1CN([C@@H](C)CO)C(=O)c2cc(NS(=O)(=O)c3ccc(Cl)cc3)ccc2O[C@H]1CN(C)Cc1ccncc1", "Potency": "inactive"},
      {"compound": "CCC(C)Sc1nnc(NS(=O)(=O)Cc2ccccc2)s1", "note": "(stereo not given)", "Potency": "inactive"},
      {"compound": "CC(C)(C)c1cc(C(=S)N2CCN(CCO)CC2)cc(C(C)(C)C)c1O", "Potency": "inconclusive: 79.4 µM [inhibitor, partial curve]"},
      {"compound": "c1ccc(-c2nnc3sc(CN4CCc5ccccc54)cn23)cc1", "Potency": "inconclusive: 89.1 µM [inhibitor, partial curve]"},
      {"compound": "COc1ccc(-c2cn3c(n2)sc2cc(C(=O)NCc4ccccc4)ccc23)cc1", "Potency": "inactive"},
      {"compound": "O=C(NCCc1ccccc1)c1ccc2nc(-c3ccco3)c(-c3ccco3)nc2c1", "Potency": "active: 56.2 µM"},
      {"compound": "O=C(N/N=C/c1cc(O)ccc1Br)c1cccnc1", "Potency": "active: 44.7 µM"}
    ]}
  ]
}
